# The list shows a part of the results. At the low end of the ranking the order means little. Measured with an extract: partners may take part in the binding.
# Biological target: T1, HNF4alpha2 (COS-7 nuclear extract) (UniProt P41235)
# T1 sequence: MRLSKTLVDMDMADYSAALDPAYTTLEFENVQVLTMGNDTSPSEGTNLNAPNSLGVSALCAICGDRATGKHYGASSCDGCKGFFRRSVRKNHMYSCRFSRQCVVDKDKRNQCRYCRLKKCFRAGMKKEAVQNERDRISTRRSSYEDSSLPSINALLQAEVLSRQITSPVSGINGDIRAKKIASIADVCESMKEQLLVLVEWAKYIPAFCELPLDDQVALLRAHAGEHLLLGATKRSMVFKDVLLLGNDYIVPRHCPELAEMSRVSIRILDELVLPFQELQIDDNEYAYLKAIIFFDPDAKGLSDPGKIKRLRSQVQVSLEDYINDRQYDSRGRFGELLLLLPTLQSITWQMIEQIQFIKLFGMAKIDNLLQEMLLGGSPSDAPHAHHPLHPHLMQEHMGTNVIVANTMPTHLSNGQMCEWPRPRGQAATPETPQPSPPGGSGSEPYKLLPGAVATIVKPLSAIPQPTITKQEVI
# Assay: protein-binding microarray
# Conditions: COS-7 nuclear extract on double-stranded Agilent 4x180k PBM; binding buffer, salt, pH and temperature not given; high values mean tight binding; double strand, one strand shown; sequences stand for … in …GCCTAGGGAGATTAGAGTATCGGTCGA
row,Sequence,binding signal (log2 normalized intensity)
1,CAAACTCAATCCTGGCCTCTGAGGTGTTAA,0.846
2,TTTGGGTTTGAAGGCTCCGGAAACGTATGA,1.01
3,TCCCTGTGGTATTTGCTCTGTCATCAACGT,1.37
4,TTTGCTTTTTACCATCTCCAACATGACCAC,1.85
5,CTCCCAAAAGGTATTTTTTGAATGACAGTG,1.32
6,AGGCAGCCATTGACGGTATGTGAATGCCTG,-0.874
7,AAACGACTGATTCTCAGGCATCTCTGGGGG,-0.853
8,ATGAAGCAAGAGTCCAAATTCCTAGCCCTC,0.603
9,CGGGTCAGCAGGGCACCGCCTCCACACCCC,1.59
10,GAAACGTTTGAATTCTTGCCTATCCCATAG,-0.656
11,ATTTACTTACCTTTTCTAATCTCTCTCCCC,2.69
12,GAGCAGCCTGGGGTAAAACCAAACTGCAGC,-1.12
13,GTGAAATGCCAGTGGGAAAACAAACTTTCC,-1.07
14,AGGTCAAACTATCTGAGGTGGTCCAGGGCC,-1.13
15,AGAAAGGCAGAAGGTTCCAGGGAACTGTCC,-1.08
16,TGGGCAATAAGCATTCTGTTTCCTACTGAC,-1.22
17,ATGCCTTTTCTTTCATGTTGTTTAGTCATG,2.25
18,AGCTAACATGTACAGTATTGCGTAAGTTGT,1.67
19,AGATCAAACAGGGACAGATGTTTGGTTGAG,1.07
20,TTATTGATTGCCTTTCATGTACTGTTCAGT,1.96
21,TTTTAAGAGCCCATCCTTGTTTTGGGGGTT,1.2
22,GCAGTCCATAAATGCTGTTGATAAAGTGAT,0.948
23,ATCAGTGTACCTGTCCCTACTCAATTATCA,-0.287
24,TTATCTTCCATGTATACTTATGTAGAAAGA,1.06

row,Sequence,binding signal (log2 normalized intensity)
1,TGCGCCGCAGCGAATGGTCGCGCCGGGCGC,-1.2
2,TTAGCTCATTTCAGCCTTAACTCAAAAGGC,-1.16
3,TTCTGCCTTATCAGCGGCCCTGTGCTGCCC,0.0914
4,CCCCAGTGTCAATTCTCATTCATCCAAGGA,0.415
5,GAGTGCTATCCTCTTATCTGAATGTATGGG,1.87
6,ATGGCTGAGCTGTAAGGACATAAGCACTGA,-1.16
7,GGAGGAGACAGCTACGGAATGCTTCCTGGA,-1.26
8,TGCTCGGAACACGAGGTGAGAGGCGGAACA,0.453
9,GTCTCAAAGTTCACCACTTTTGCAATGTTT,2.05
10,GTAAAGGTGGTTTGGGTAATAACATGTAAT,0.896
11,GGGTGCCTGATAATGACTCTTGAACCACAG,1.49
12,TTCTTTGTACCGTATTTCAGACCACCCAGT,2.98
13,AGGTCAAAGTGCAACTACAAGGAGCAGCCT,3.48
14,CCTAAGCCTTATTATCTGCTTTTATGACCT,3.06
15,AAATATGTTCCACCCAGGGTGGCAGGCTCT,-1.12
16,AACTATGCAGTGTCCATGGTGACCATGTGA,1.29
17,ATTTGGCCACATCCTGTCTCCTTTAACCTT,2.12
18,CTGTTTGACCAAAGCTACTCATCATGAACT,-0.0277
19,CTCAGAGCATATGTTGACCCGAGTGCCCTT,4.52
20,AGGACTCAATGATACCATCAGATACCTACT,-1.09
21,GGTTTATTTTTATCTGTTTATTTTGCAATT,0.565
22,AGGGAGGCCTAGACACAGACTCAAGTGAGG,-1.17
23,ACACCGTCCAGAGGCTCCAAAGGACACTCC,-1.03
24,ACACAGGCGACCTTCGCTCGGCTCGCTCTC,1.92

row,Sequence,binding signal (log2 normalized intensity)
1,TCACAGAGCAGAGAAAATTCTAGATAACTC,-1.29
2,TGCAATGCGGAATGACATTCAGCAACTGGG,-1.16
3,GCTTTCTATTCAGACCTTCAACTATTTGGA,1.31
4,AACTTCTCACCTTCAGATGCCATGTCTAAA,0.667
5,AGCTTGAATCACTCACTGACCTCTTTTGGA,2.38
6,CAGAGAGGTCAGCAAATGTGGACACTTTGA,0.903
7,AAATGAAGTGGTATCCTGCAGTCAGTCTGA,0.109
8,TCTCACCAGACCAAGAGCTTAACCTTTGCC,3.13
9,ATGATAACCCCCGTCACTGCAAGGCAAACA,3.56
10,GTCTCCTTTCAAGGCAGATTTCTGTCTTTG,0.579
11,CTAAGCTTGTAGACCAAGGAGGCCTCTTCC,-1.11
12,TATCAGTGTTGACCTCTGGACCTCATCTTC,5.36
13,ACGTGCAGCAATAGGTCAGAGGACACCCGG,-1.16
14,AGACTGCCATTCCAGAAGTAGGATGGGGAG,-1.1
15,CCAGGCAATCAGCCTTAGGTATGCCCCATG,0.155
16,AAGGGTCAATGTGATCAGGTGTGGGCATTA,1.62
17,TCCCCCAACCCCACCTTCATTCTTCATGGG,3.34
18,AGAGCAAAGGTGATCTGCTGGAATGAAGAC,-1.08
19,ACCCAGAGAATGCTAGACAAGGGAATTACT,-1.24
20,AACTCTCTGTGGATGTATGTCCAGATAACT,1.55
21,TAACAAAAATATCACAATCCTTAAGCAGCA,-1.1
22,TCAACTTTCAACATTTAACTTAACCACTCA,-0.00171
23,CATTTGAGTACATGCCTCTCCCAGTGGAAT,1.19
24,CTGGCTGCCCTGGGGATCAAAGCGTATGGG,-0.735

# From publication PMC10726135
